From PubChem BioAssay AID743279 (National Center for Advancing Translational Sciences (NCATS), 2014)
Hit rate of the full screen: of about 360,000 compounds, about 17,000 (4.7%) were called active. Inconclusive results, whose numbers are uncertain, are shown with a selection of clear calls. Rule as the data show it: active = activity change below about -50%; inconclusive = mostly about -30% to -49%; inactive = weaker than that.

Experiment: qHTS for Inhibitors of Inflammasome Signaling: IL-1-beta AlphaLISA Primary Screen
Conditions: THP-1 LPS/ATP IL-1B secretion, 16 h; at 57.5 µM, active compounds read low
Procedure, shortened: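 THP-1 cells pretreated 1 hr with compounds (up to 57.5 uM final), then stimulated with LPS (250 ng/mL final) plus ATP (1.25 mM final); secreted IL-1B measured by AlphaLISA after 16 hr, decreased signal indicating inhibition.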
% is scaled to controls: 0 for no effect and ±100 for the full control effect.

Activity change, active:
O=C(CC(C(=O)O)P(=O)(c1ccccc1)c1ccccc1)c1ccccc1 (centres undefined) -50.2%
Cc1cc(NO)c(C(C)C)cc1N=O -85.4%
CC(C)(C)Nc1nc2nonc2nc1NC(C)(C)C -68%
O=C(/C=C/c1cccc([N+](=O)[O-])c1)n1cnc2ccccc21 -68.4%
CC(=O)c1ccc(NC(=O)NC2CCCCCCC2)cc1 -66%
S=C(NCc1ccc(Cl)cc1)NC1CCN(Cc2ccccc2)CC1 -92.4%
CCc1c(C)nc(Nc2nc(C)c3ccc(OC)cc3n2)[nH]c1=O -76.3%
CCCCOc1ccc(C(=O)OC2CC(C)N(C)CC2C)cc1 (centres undefined) -53.6%
O=C(CSc1nc(C2CCCCC2)nc2ccccc12)N1CCCC1 -80.9%

Activity change, inactive:
O=C(Nc1ccccc1)N(O)c1ccc(Cl)cc1 9.8%
Cc1ccc([C@H]2N[C@]3(CCCN(Cc4ccc(Br)cc4)C3=O)[C@H]3C(=O)N(Cc4ccccc4)C(=O)[C@@H]23)cc1 -15%
Cc1nc(SCC(=O)NCC2CCCO2)nc(C)c1C (centres undefined) 12%
O=C(NCCc1c[nH]c2ccccc12)c1cc(S(=O)(=O)N2CCCCC2)ccc1N1CCOCC1 -0.479%
CC(NC(=O)CCc1nnc(CCCc2ccccc2)o1)c1ccccc1 (centres undefined) 47.3%
Cc1cccc(NC(=O)c2ccc(S(=O)(=O)N3CCCCC3)cc2)n1 -25.3%
Cc1ccc(C(=O)OCC(=O)N(CCc2ccccc2)Cc2ccccc2)cc1S(=O)(=O)N1CCOCC1 16.1%
COCCN1C(=O)C(=O)/C(=C(/O)c2ccc(C)cc2)C1c1ccccn1 (centres undefined) 7.23%
CCc1cccc(OCCOC(=O)CNS(=O)(=O)c2ccc(NC(C)=O)cc2)c1 -0.615%
Cc1cccc(OCC(=O)N/N=C/c2ccc3c(c2)OCO3)c1 1.64%
O=c1cc(CN2CCN(c3ccc(F)cc3)CC2)c2cc3c(cc2o1)CCCC3 35.1%
COC(=O)c1c(NC(=O)C(C)(C)C)csc1C 2.5%
CCN(CC)C(=O)COc1ccc(/C(C)=N/Nc2ncc(Cl)cc2Cl)cc1 -17.4%
O=C(COc1ccc(Cl)cc1Cl)Nc1ccccc1F -19.4%
Cc1cc(NC(=O)c2ccc3sc([C@@H]4O[C@H](CO)[C@H](O)[C@H](O)[C@H]4O)nc3c2)n(C)n1 1.57%
CC1CCCN(CCCNC(=O)c2nn(C)c3c2CS(=O)(=O)c2ccccc2-3)C1 (centres undefined) -4.69%
Cc1cccc(C)c1NC(=O)c1cccc2c1-c1ccccc1C2=O 1.09%

Activity change, inconclusive:
COc1cc(CN(C)CC2CCCN(CCc3cccc(C(F)(F)F)c3)C2)ccc1O (centres undefined) -46.1%
Cc1ccc(C(=O)c2ccc(N3CCN(C)CC3)c([N+](=O)[O-])c2)cc1 -38%
Cc1ccc(SCC(=O)N(Cc2nc(-c3ccccc3)no2)C(C)C)cc1 -31.2%
CC(=O)Nc1ccc(NC(=O)C2CCN(C(=O)c3cccs3)CC2)cc1 -35.1%
COc1ccc(C(=O)c2c(C(F)(F)F)oc3c2C(=O)c2ccccc2C3=O)cc1OC -45.6%
Cc1oc(C(C)(C)C)cc1C(=O)Nc1ccc2c(c1)OCCO2 -48.5%
Cc1ccc(S(=O)(=O)N2CCN(CC(=O)N/N=C\c3ccc(Cl)c([N+](=O)[O-])c3)CC2)cc1 -39.5%
O=c1c2c3nc4ccccc4nc3n(Cc3ccccc3)c2ncn1Cc1ccco1 -39.2%
COc1ccc(C)cc1NC(=O)CSc1ccc(-c2sc(C)nc2C)nn1 -41.3%
COc1ccc(OC)c(-n2c(SCC(=O)N3CCc4ccccc43)nc3c(c2=O)SCC3)c1 -40.3%
CCCOc1ccc(/C=N/Nc2ccc(C(=O)O)cc2)c(OCCC)c1 -34.5%
COc1ccccc1C(=O)NCC(=O)N/N=C/c1cn[nH]c1-c1ccccc1 -31.9%
CCCCN(C(=O)c1ccc(NC2CC2)c([N+](=O)[O-])c1)c1c(N)n(CC(C)C)c(=O)[nH]c1=O -44.7%
CC(C)[C@@H](NC(=O)OC(C)(C)C)c1cc(C(=O)c2c(-c3ccccc3)[nH]c3ccccc23)c(N)s1 -30.3%
CCOC(=O)c1cnc2c(C(F)(F)F)cccc2c1NCCCN1CCOCC1 -30.3%
COc1cccc(-c2nnc(NC(=O)CCS(=O)(=O)c3ccc(C)cc3)o2)c1 -38.5%
Cc1c(C(=O)NCc2ccc3c(c2)OCCO3)sc(=O)n1Cc1cccc(C(F)(F)F)c1 -32.1%
C=C(C)c1cccc(C(C)(C)NC(=O)N2CCC(C)CC2)c1 -37.3%
CCOC(=O)c1c(NC(=O)C(C)NCc2ccco2)sc2c1CCC(C)C2 (centres undefined) -39.8%
CC(C)(C)c1ccc(S(=O)(=O)Nc2ccc(Cc3ccncc3)cc2)cc1 -44.2%
C[C@H](CO)N1C[C@H](C)[C@H](CN(C)S(=O)(=O)c2cccs2)Oc2ccc(NC(=O)Nc3ccc4c(c3)OCO4)cc2CC1=O -40.5%
Fc1ccc(Nc2nc(NCc3ccccc3)nc3ccsc23)cc1 -34.8%
COc1ccc(/C=C2\SC(=N)N(c3ccc(F)cc3)C2=O)cc1OC -36.2%
CN(CCNC(=O)c1cc2c(-c3ccccc3F)nn(C)c2s1)C1CCCCC1 -44.6%
CC1(C)CC(=O)C=C(c2ccc(F)cc2OCc2ccccc2)C1 -39.5%
CCN(CC)CCCNC(=O)c1cc2c(Cl)nc3ccccc3c2s1 -46.3%
CCn1c(SCC(=O)Nc2nc3ccc(OC)cc3s2)nc2c1c(=O)n(C)c(=O)n2C -49.4%
CCOC(=O)c1ccc(NC(=O)CCc2nc(-c3cccc(C)c3)no2)cc1 -37%
